Laboratory results reported in PubChem BioAssay AID1631 (National Center for Advancing Translational Sciences (NCATS), 2009).
Screen size: about 260,000 compounds; about 890 (0.34%) were called active. Inconclusive means that the source gave no clear call. Such entries were picked first, then a sample of the others. The call rests on the fitted dose curve; in most records, active means well fitted activation curve with a large enough effect; inconclusive means small, poorly fitted or top-dose-only effect; inactive means no such curve, though single readings can be large or run the other way. No potency is given beside an inconclusive call; the fits are too rough.

target: Pyruvate kinase PKM (Homo sapiens) (UniProt P14618); assay: qHTS Assay for Activators of Human Muscle isoform 2 Pyruvate Kinase; settings: purified PKM2, Kinase-Glo ATP luminescence; Potency: activation; activation: at 57.5 µM (top of the series), 0% is enzyme alone, no compound; further: nearly all actives have a fitted effect of over 55% in size
Chain of UniProt P14618 (P14618 whole entry, looked up, canonical isoform): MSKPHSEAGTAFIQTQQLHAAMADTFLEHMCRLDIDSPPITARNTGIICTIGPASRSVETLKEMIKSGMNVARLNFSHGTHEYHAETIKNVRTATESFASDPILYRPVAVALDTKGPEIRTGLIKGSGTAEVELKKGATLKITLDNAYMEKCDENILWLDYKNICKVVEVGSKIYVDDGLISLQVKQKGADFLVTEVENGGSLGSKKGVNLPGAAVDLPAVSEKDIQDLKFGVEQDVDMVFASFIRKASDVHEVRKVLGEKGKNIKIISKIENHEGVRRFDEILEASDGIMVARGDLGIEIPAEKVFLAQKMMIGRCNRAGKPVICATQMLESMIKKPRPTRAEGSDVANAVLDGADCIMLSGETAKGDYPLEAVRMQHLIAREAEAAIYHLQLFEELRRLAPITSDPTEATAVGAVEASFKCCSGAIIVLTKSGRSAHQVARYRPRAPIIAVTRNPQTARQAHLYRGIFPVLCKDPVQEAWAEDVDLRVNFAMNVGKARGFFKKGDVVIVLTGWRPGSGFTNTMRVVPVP
Method in brief: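 hPK-M2, >95% pure; 0.1 mM ADP / 0.5 mM PEP final; imidazole pH7.2 buffer w/ 7 mM MgCl2, 50 mM KCl; 1 h RT; Kinase-Glo lum. Intermediate enzyme activity for dual inhibitor/activator qHTS.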
Potency means the concentration at half of the fitted maximal effect; tags describe the fitted curve by direction and shape.

Row | Compound | Potency
1 | CCOC(=O)c1c(NC(=O)CSc2nnc(C)c(=O)[nH]2)sc(C)c1C | inconclusive [rising, single point]
2 | COc1ccc(N2C(=O)c3ccccc3NC2c2ccc(OC)c(CSc3ccccn3)c2)cc1 (stereo not given) | inactive
3 | CCN(CC(=O)Nc1cc(Cl)ccc1C)C(=O)COc1ccccc1F | inactive
4 | COc1cccc(/C=N/Nc2ncnc3c2[nH]c2ccc(C)cc23)c1OC | inconclusive [rising, single point]
5 | O=C(OCc1nc2ccccc2s1)C1CCN(S(=O)(=O)c2cccs2)CC1 | active: 8.91 µM
6 | O=C(COc1ccc(Cl)cc1Cl)NCC(=O)N/N=C/c1c[nH]c2ccccc12 | inconclusive [rising, partial curve]
7 | CCCC(=O)OCCNc1cc(Sc2nccn2C)c2nonc2c1[N+](=O)[O-] | inconclusive [rising, partial curve]
8 | CCOC(=O)c1ccc2c(c1)n(CCO)c(C)[n+]2CC | inactive
9 | COc1ccc2nc(C)cc(Nc3ccc(C)cc3)c2c1 | inconclusive [rising, full curve, poor fit]
10 | COc1ccc(C2N=C(c3ccccc3)NO2)cc1OC (stereo not given) | inactive
11 | COCCCNC(=O)COc1ccc(S(=O)(=O)Nc2ccccc2)cc1 | active: 14.1 µM
12 | CC(=O)c1c(OC(=O)c2ccc(C)cc2)c2ccccc2n1C | inconclusive [rising, full curve]
13 | O=C(NCc1ccc2c(c1)OCO2)c1cnc2ccccn2c1=O | inconclusive [rising, partial curve]
14 | COCCN=c1scc(-c2ccc3c(c2)NC(=O)CO3)n1/N=C(\C)c1ccc(O)cc1 | inconclusive [rising, full curve, poor fit]
15 | COc1cc2c(cc1O)[C@H](Cc1ccc(Oc3cc(C[C@@H]4NCCc5cc(OC)c(O)cc54)ccc3O)cc1)NCC2 | inconclusive [rising, partial curve]
16 | O=C(N/N=C\c1cn(-c2ccccc2)nc1-c1ccccc1)c1ccc(Br)o1 | inactive
17 | O=C(Nc1ccc(Cl)cc1)Nc1nnc(-c2ccncc2)s1 | inactive
18 | Cc1cc(=O)oc2cc(NS(=O)(=O)c3ccccc3)ccc12 | active: 15.8 µM
19 | COc1ccc(-c2nn(-c3ccccc3)cc2/C=N/NC(=O)c2cccc(S(=O)(=O)Nc3ccccc3Cl)c2)cc1 | inactive
20 | Cc1cc(C)cc(NC(=O)CCN2CCCC2)c1 | inactive
21 | C=CCOc1ccccc1/C=N/NC(=O)c1ccc(Cl)cc1Cl | inactive
22 | CCOc1cc(/C=C2/C(=O)ON=C2C)ccc1OCc1ccc(F)cc1 | inconclusive [rising, single point]
23 | CCn1c2ccccc2c2cc(/C=N/n3c(-c4cc(C)[nH]n4)n[nH]c3=S)ccc21 | inconclusive [rising, partial curve]
24 | CN1/C(=C\C(=O)COC(=O)c2ccc(O)cc2)C(C)(C)c2ccccc21 | inactive
25 | COC(=O)c1c(NC(=O)Cc2ccccc2)sc2c1CCN(C(C)C)C2 | inconclusive [rising, single point]

Row | Compound | Potency
26 | O=C(OCCN1C(=O)c2ccccc2C1=O)c1cc(=O)[nH]c2ccccc12 | inconclusive [rising, full curve, poor fit]
27 | Cc1ccc(Nc2nc(N)c3ccccc3n2)cc1Cl | inconclusive [rising, single point]
28 | O=C1CC(c2ccco2)CC(O)=C1C=Nc1cc(Cl)ccc1Cl (stereo not given) | inconclusive [rising, single point]
29 | O=S(=O)(c1ccc2ccccc2c1)N1CCNCC1 | inconclusive [rising, partial curve]
30 | CNC(=S)N1N=C(c2ccc(Br)cc2)CC1c1ccc(OC)cc1 (stereo not given) | inconclusive [rising, full curve]
31 | CCOC(=O)C1CCN(C(=O)c2ccc(NS(=O)(=O)c3ccc(F)cc3C)cc2)CC1 | inconclusive [rising, single point]
32 | CCCN1C(=O)CC(c2ccco2)Sc2ccccc21 (stereo not given) | inconclusive [rising, single point]
33 | Cc1cc(-c2ccc(/C=N/n3cnnc3)o2)c([N+](=O)[O-])cc1C | inconclusive [rising, partial curve]
34 | COc1cccc(-c2nnc(SCC(=O)Nc3cc(C)on3)o2)c1 | inconclusive [rising, partial curve]
35 | CC1CCC2(CC1)NC(CO)(CO)CO2 (stereo not given) | inconclusive [rising, single point]
36 | CC(C)c1ccc(/C=C/C(=O)NCCCc2ccccc2)cc1 | inconclusive [rising, single point]
37 | O=C(NCCc1nc2ccccc2[nH]1)c1ccc(Cl)c([N+](=O)[O-])c1 | inconclusive [rising, partial curve]
38 | C/C(=N/NC(=O)C1CC1(c1ccccc1)c1ccccc1)c1cccs1 (stereo not given) | inconclusive [rising, single point]
39 | CC(=O)Nc1sc(N/N=C/c2ccccc2)nc1-c1ccc(C)cc1 | inconclusive [rising, full curve]
40 | CC(C)Oc1ccc(C(=O)Nc2nnc(SCC(=O)N3CCOCC3)s2)cc1 | inactive
41 | CCOc1ccc(NS(=O)(=O)c2ccc(NC(=O)c3cccnc3)c(OC)c2)cc1 | inconclusive [rising, full curve]
42 | COc1ccc(CNC(=S)NCc2ccc(OC)cc2)cc1 | inconclusive [rising, single point]
43 | CC(=O)N(c1ccc2oc(=O)sc2c1)S(=O)(=O)c1ccccc1 | inconclusive [rising, partial curve]
44 | COc1cc([N+](=O)[O-])ccc1NC(=O)CSc1nccn1C | active: 12.6 µM
45 | C=CCC(=O)N1CCCC(CCC(=O)NCc2ccccc2F)C1 (stereo not given) | inconclusive [rising, single point]
46 | CCOc1ccccc1N1CCN(c2nc(N)c(C#N)c(CC#N)c2C#N)CC1 | inactive
47 | CCCN(C(=O)c1cc2c(s1)CCC2)c1c(N)n(Cc2ccccc2)c(=O)[nH]c1=O | active: 22.4 µM
48 | CCOC(=O)c1sc(NC(=S)NC(=O)c2ccccc2)nc1C | inconclusive [rising, partial curve]
49 | Cc1ccnc(-n2sc3ccccc3c2=O)n1 | inconclusive [rising, partial curve]
50 | OCCCNc1nc(-c2ccccc2)nc2c1oc1ccccc12 | inactive

Row | Compound | Potency
51 | CCN1CCN(C(=O)C2=CC(c3ccc(OC)cc3)=NS(=O)(=O)N2C)CC1 | inconclusive [rising, single point]
52 | COc1cc2c(cc1NC(=S)Nc1cccc3ccccc13)oc1ccccc12 | inactive
53 | Cc1cnc(SCCc2ccncc2)nc1C | inactive
54 | O=c1oc2cc(Br)ccc2n1CSC1=NCCS1 | inconclusive [rising, partial curve]
55 | Cc1cc2n(n1)C(c1ccccc1Cl)Nc1ccccc1-2 (stereo not given) | active: 17.8 µM
56 | CSC1=NCCN1C(=O)c1ccc2c(c1)OCO2 | inconclusive [rising, single point]
57 | CCN(CC)S(=O)(=O)c1ccc(S(=O)(=O)N2CCC(C(=O)NC3CCN(Cc4ccccc4)CC3)CC2)cc1 | inactive
58 | COc1cc(/C=C2/C(=O)NN(c3cccc(C)c3)C2=O)ccc1OC(=O)c1ccco1 | inconclusive [rising, single point]
59 | CCOc1ccc(C(=O)Nc2ccccc2N2CCN(C(=O)c3ccccc3)CC2)cc1[N+](=O)[O-] | inactive
60 | Cc1ccc(C)c2[nH]c(=O)c(C(c3nnnn3Cc3ccco3)N3CCc4ccccc4C3)cc12 (stereo not given) | inconclusive [rising, single point]
61 | COc1cc(C)c(Cl)cc1S(=O)(=O)n1cnc(C)c1 | inconclusive [rising, partial curve]
62 | CCOc1ccc(N2C(=O)/C(=C/c3ccccc3)N=C2SC)cc1 | inactive
63 | O=C(NCCc1c[nH]c2ccccc12)C(=O)NCC(c1ccco1)N1CCN(c2ccccc2)CC1 (stereo not given) | inactive
64 | CSCCOC(=O)c1[nH]c2c(c1C)C(=O)CC(c1ccco1)C2 (stereo not given) | active: 22.4 µM
65 | Cc1cc[n+](C2=C([O-])c3ccccc3C(=O)/C2=N\S(=O)(=O)c2cccs2)cc1C | inactive
66 | O=C(c1ccc(Cl)cc1Cl)N1CCc2ccccc21 | inactive
67 | COC(=O)C(=O)/C=C(\O)c1c(C)cc(C)cc1C | inactive
68 | Cc1sc(NC(=O)/C=C/c2ccco2)c(C(=O)OC(C)C)c1C | inconclusive [rising, partial curve]
69 | Nc1c(C=C2C=CC(=O)C=C2)c(=O)nc2snc(SCc3ccccc3)n12 | inactive
70 | CC(CNS(=O)(=O)c1ccccc1)Sc1ncccn1 (stereo not given) | inconclusive [rising, single point]
71 | C=CCN1C(=O)N/C(=C/c2ccc(C)o2)C1=O | inconclusive [rising, full curve]
72 | COc1ccccc1N(C)S(=O)(=O)c1ccc(C(=O)NCc2ccc3c(c2)OCO3)cc1 | inactive
73 | CCCCC1=CC2=CC(=O)C(C)(OC(=O)CC)C(=O)C2=CN1Cc1ccccc1 (stereo not given) | inactive
74 | COCc1cc(C)nc(SCC(=O)Oc2ccc(Cl)cc2)c1C#N | inconclusive [rising, single point]
75 | CCC(=O)Nc1cc(C(C)C)c(O)cc1C | inconclusive [rising, single point]
